Reference: PubChem BioAssay AID485344 (National Center for Advancing Translational Sciences (NCATS), 2010)
Hit rate of the full screen: of about 340,000 compounds, about 6,900 (2%) were called active. Rule as the data show it: active = inhibition above about 30%; inactive = below that, where a call was filed. Only a part is listed here, and it is no random draw. Entries without a call were filed so in the source.

Target: D(2) dopamine receptor (Homo sapiens) (UniProt P14416)
Test: HTS Assay for Allosteric Antagonists of the Human D2 Dopamine Receptor: Primary Screen for Antagonists; also: 0% is about no effect
Details: HEK293 TREx D2 cells, calcium flux, dopamine EC80; at 10 µM; stronger effect = higher value
How it was run: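 Overnight-induced (tetracycline, 30 C) HEK293 T-REx cells carrying force-coupled D2 receive a no-wash calcium dye, then compound, then EC80 dopamine at 180 s; signals are read kinetically throughout.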

Sequence of UniProt P14416 (P14416 whole entry, looked up): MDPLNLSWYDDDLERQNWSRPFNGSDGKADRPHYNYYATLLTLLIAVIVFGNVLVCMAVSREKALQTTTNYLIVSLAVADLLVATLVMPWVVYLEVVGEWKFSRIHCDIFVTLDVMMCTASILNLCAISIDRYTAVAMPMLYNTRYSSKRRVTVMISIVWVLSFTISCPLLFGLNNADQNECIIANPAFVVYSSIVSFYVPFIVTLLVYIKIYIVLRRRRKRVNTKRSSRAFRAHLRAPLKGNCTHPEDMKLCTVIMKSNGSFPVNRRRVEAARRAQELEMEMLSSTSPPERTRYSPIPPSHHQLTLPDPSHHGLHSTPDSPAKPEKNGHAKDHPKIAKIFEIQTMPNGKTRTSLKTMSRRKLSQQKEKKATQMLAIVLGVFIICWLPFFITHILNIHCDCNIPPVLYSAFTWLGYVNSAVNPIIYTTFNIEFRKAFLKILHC

Compound	inhibition
COc1ccc(C)cc1NC(=O)NCc1ccc2c(c1)CCN2C(=O)c1ccccc1	11.3%
COc1ccc(C(=O)NCCc2sc(-c3ccc(Cl)cc3)nc2C)c(OC)c1	-9.6%
Cc1ccc(C)c(CN2C(=O)c3ccccc3S(=O)(=O)c3ccc(C(=O)N4CCN(c5ccccn5)CC4)cc32)c1	12.2%
COc1cc(NC(=O)CN2C(=O)COc3ccc(S(=O)(=O)N4CCCCC4)cc32)cc(OC)c1	-7.93%
CCCN1C(=O)C(Cc2nc3ccccc3c(=O)n2-c2ccccc2)c2cc(C)ccc21 (configuration not stated)	-6.65%
CCc1cccc(N2C(=O)N(CC(=O)NCc3cccc(OC)c3OC)c3ccccc3S2(=O)=O)c1	-2.26%
Cc1cc(C)n2nc(SCC(=O)Nc3ccccc3C)nc2n1	-0.0415%
Cc1ccc(Cl)cc1N1CCN(C(=O)c2cc(S(=O)(=O)N3CCCC3)cn2C)CC1	-9.7%
Cc1ccc(Nc2nnc(-c3ccc(C)c(S(=O)(=O)N4CCOCC4)c3)c3ccccc23)c(C)c1	22%
CCc1nc2nc(C)cc(Nc3ccc(OC)cc3OC)n2n1	-6.09%
CCC(Cc1ccccc1)NC(=O)Cn1ncc2c3ccccc3n(Cc3ccccc3)c2c1=O (configuration not stated)	3.55%
CCOc1ccc(C(=O)c2cn(Cc3ccc(Cl)cc3)c3cc(OC)c(OC)cc3c2=O)cc1	18.3%
Cc1oc(-c2ccc(Cl)cc2)nc1CN1CCC(C(=O)NCCCN2CCN(c3cccc(Cl)c3)CC2)CC1	-7.59%
Cc1ccc2c(c1)NC(=O)C(CC(=O)Nc1ccccc1Cl)O2 (configuration not stated)	-1.62%
O=C1c2[nH]nc(-c3ccccc3O)c2C(c2ccccc2F)N1Cc1ccncc1 (configuration not stated)	12.6%
CCOC(=O)Cc1ccc(NC(=O)NCc2cccn2Cc2ccccc2)cc1	11.7%
COc1ccc(-n2c(=O)c3sc4ccccc4c3n(CC(=O)Nc3ccccc3F)c2=O)cc1	2.34%
Cc1ccc(NC(=O)CSc2nc(-c3cccs3)nc3cc(=O)[nH]n23)cc1	-2.21%
COc1ccc(CC(=O)NCC(c2ccc(N(C)C)cc2)N2CCOCC2)cc1 (configuration not stated)	5.01%
Cc1ccc(-n2ncc3c(NCCCn4ccnc4)ncnc32)cc1Cl	11.1%
Cc1cc(F)ccc1S(=O)(=O)Nc1ccc2c(c1)CCCN2C(=O)c1cccs1	-14.2%
COc1ccc(N2C(=O)C(CC(=O)Nc3ccc(F)cc3)N(Cc3ccc4c(c3)OCO4)C2=O)cc1 (configuration not stated)	20.9%
COC(=O)c1cnc(NCc2ccc(F)cc2)c2ccccc12	13.2%
CCN(CC)C(=O)Cn1c(=O)nc(-c2ccccc2F)c2cc(Cl)ccc21	11%

Compound	inhibition
CCCNC(=O)N1[C@H](c2ccc(C)s2)[C@@H](C)C(=O)[C@@H](C)[C@@H]1c1ccc(C)s1	8.29%
COc1ccc(NC(=O)CSc2nc(-c3ccco3)cc(C(F)(F)F)n2)cc1	-5.05%
COc1ccc(NC(=O)Cn2c(=O)n(Cc3ccc(C(=O)NCc4ccccc4Cl)cc3)c(=O)c3ccccc32)cc1OC	-0.25%
CCCN1Cc2cccc(C(=O)Nc3cc(C)cc(C)c3)c2C1=O	-3.91%
CC(=O)Nc1ccc(C)cc1-c1nc2ccccc2n(CC(=O)Nc2cc(Cl)ccc2C)c1=O	7.41%
CCn1c(=O)c(=O)n(CC)c2cc(N3CCCCC3)c(NC(=O)c3cccc(F)c3)cc21	-28%
Cc1nnc2c(Nc3cccc(O)c3)nc3ccccc3n12	4.62%
Cc1cc(=O)oc2cc(OCC(O)CN3CCN(c4ccc(F)cc4)CC3)ccc12 (configuration not stated)	active: 75.9%
CCC(C)NC(=O)c1ccc2c(=O)n3c(nc2c1)CCCCC3 (configuration not stated)	16.9%
Cc1ccc(NC(=O)Cn2nnc3sc(-c4ccccc4)cc3c2=O)cc1Cl	12.9%
COc1ccc(C(=O)NCC2(N3CCN(C)CC3)CCCCC2)cc1	4.45%
COC(=O)c1ccc(Cl)cc1NC(=O)N(Cc1ccc(C)o1)C1CCN(C(C)=O)CC1	-8.41%
CCC(CC)c1nn2c(=O)cc(COc3ccc(NC(=O)c4cccc(Cl)c4)cc3)nc2s1	-9.9%
COc1ccc(C)cc1NS(=O)(=O)c1ccc2c(c1)n(C)c(=O)n2C	4.08%
CCc1ccc(NCc2cccn2-c2nnc(N3CCCCCC3)s2)cc1	3.48%
CCN1CCN(c2ncc3c(n2)CCN(Cc2ccc(Br)s2)C3)CC1	8.56%
O=C(COC(=O)c1ccc(F)c(S(=O)(=O)N2CCOCC2)c1)c1ccc(Br)cc1	active: 36.4%
O=C(Nc1ccc(OC(F)(F)F)cc1)c1ccc2nc[nH]c2c1	active: 61.7%
COc1ccc(OC)c(-c2cc(C(=O)Nc3cnn(Cc4ccc(Cl)cc4Cl)c3)no2)c1	9.81%
CCOc1ccc(NC(=O)CSc2nnc(CNC(=O)c3c(F)cccc3Cl)o2)cc1	10.5%
COc1ccccc1N1CCN(S(=O)(=O)c2c(C)sc3ncn(CC(=O)Nc4ccccc4F)c(=O)c23)CC1	-6.94%
COc1cccc(NC(=O)Cn2c(=O)n(-c3ccc(Cl)cc3)c(=O)c3sc4ccccc4c32)c1	3.92%
CCOc1ccc(/C=C/c2nc3ccccc3n2S(=O)(=O)c2ccc(Br)cc2)cc1	4.2%
